# Values joined by “and” are separate entries in the source; they are usually repeats but may differ in a detail not shown here. Equal entries are not always repeated. About 4,500 (2.2%) of roughly 200,000 compounds were called active. The shares of active, inactive and inconclusive entries below differ from those in the screen. Calls come from the whole dose curve; as a rule, active = well fitted inhibition curve with a large enough effect; inconclusive = small, poorly fitted or top-dose-only effect, or effect the other way; inactive = flat fitted curve, though single readings scatter. Where the call is inconclusive, the potency comes from a doubtful curve fit.
# Molecular target: Cruzipain (Trypanosoma cruzi) (UniProt P25779)
# Assay: qHTS Assay for Promiscuous and Specific Inhibitors of Cruzain (without detergent); note: nearly all actives have a fitted effect of over 40% in size;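 for max response, negative = inhibition: plate controls were enzyme without inhibitor for no effect and buffer without enzyme for full effect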
# Details: purified cruzain, Z-FR-AMC fluorescence, no detergent
# How it was run: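 Detergent-free condition (0.00005% Triton X-100) in acetate buffer pH 5.5 with DTT. 1.5 nM enzyme and compound were pre-mixed 15 min, then 2 uM Z-FR-AMC substrate added; reaction progress from fluorescence change between first and third reads (60 s).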
# Potency is the fitted concentration of half-maximal effect; tags give direction and shape of the fitted curve.
# Chain of UniProt P25779 (P25779 whole entry, looked up): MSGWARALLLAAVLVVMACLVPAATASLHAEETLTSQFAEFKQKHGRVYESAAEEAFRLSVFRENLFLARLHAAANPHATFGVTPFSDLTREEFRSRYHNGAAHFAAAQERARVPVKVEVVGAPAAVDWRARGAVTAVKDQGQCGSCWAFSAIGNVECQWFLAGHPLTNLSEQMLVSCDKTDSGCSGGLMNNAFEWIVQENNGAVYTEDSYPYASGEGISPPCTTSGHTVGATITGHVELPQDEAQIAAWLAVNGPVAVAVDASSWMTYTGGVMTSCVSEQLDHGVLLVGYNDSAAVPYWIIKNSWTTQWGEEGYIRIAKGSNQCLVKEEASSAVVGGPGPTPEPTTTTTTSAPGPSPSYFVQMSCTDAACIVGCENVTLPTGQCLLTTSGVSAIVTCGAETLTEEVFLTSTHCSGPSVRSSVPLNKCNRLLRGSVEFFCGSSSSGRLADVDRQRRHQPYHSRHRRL
Compound,Potency,"max response, negative = inhibition"
CCn1c(C(=O)NCc2ccccc2Br)cc2oc3ccccc3c21,"inconclusive: 39.8 µM [inhibitor, single point]",
Cc1c(NC(=O)c2ncn[nH]2)cccc1-c1nc2ccccc2s1,"inconclusive: 39.8 µM [inhibitor, single point]",
CCn1c(O)c(C(=O)CC2NCCc3ccccc32)c(=O)n(CC)c1=S (centres undefined),"inconclusive: 39.8 µM [activator, single point]",
Cc1cc(Cl)ccc1OCC(=O)NCCOc1nc(N2CCCCC2)nc(N2CCOCC2)n1,"inconclusive: 31.6 µM [activator, partial curve]",
COc1ccc(-c2cc(C(=O)OCC(=O)N(C)C)c3ccccc3n2)cc1,"inconclusive: 39.8 µM [activator, single point]",
COCCn1nnnc1C(c1cccs1)N1CCN(c2cccc(C(F)(F)F)c2)CC1 (centres undefined),"inconclusive: 31.6 µM [activator, single point]",
Cc1ccc(C)c(N2CCN(C(=O)CCCCn3c(=O)[nH]c4ccccc4c3=O)CC2)c1,"inconclusive: 39.8 µM [activator, single point]",
CCCOc1cccc(C2c3c(-c4ccccc4O)n[nH]c3C(=O)N2Cc2ccco2)c1 (centres undefined),"inconclusive: 31.6 µM [inhibitor, single point]",
CC(C)CCn1c(Oc2ccccc2F)nc2c1c(=O)n(C)c(=O)n2C,,inactive: 1.83%
Cc1ccccc1Cn1ccc(-c2ccc(Cl)cc2)c(C#N)c1=O,active: 25.1 µM,
COc1ccc(OC)c(S(=O)(=O)N2CCC(C(=O)NCc3ccccc3OC)CC2)c1,"inconclusive: 31.6 µM [activator, single point]",
CCn1nc(NC(=O)c2ccco2)c2cc3ccc(C)cc3nc21,"inconclusive: 39.8 µM [activator, single point]",
Cc1ccccc1OCc1nc2ccccc2n1Cc1ccccc1Cl,,inactive: -4.52%
O=c1c(CCc2ccccc2)nc2cnc(Nc3ccccc3)nc2n1Cc1cccs1,active: 25.1 µM,
O=C(c1cc(C(F)(F)F)cc(C(F)(F)F)c1)N1CCC2(CCCN(c3ncccn3)C2)CC1,"inconclusive: 31.6 µM [activator, single point]",
COc1ccc(C2=NS(=O)(=O)N(C)C(C(=O)N(C)Cc3ccccc3)=C2)cc1OC,,inactive: -11.8%
O=[N+]([O-])c1cccc2ccc(/C=C/c3cccc(Br)c3)nc12,"inconclusive: 12.6 µM [inhibitor, partial curve, poor fit]",
CCNC(=S)Nc1nc2c(cc1C(=O)OCC)CCCC2,"inconclusive: 31.6 µM [inhibitor, single point]",
CN(C)S(=O)(=O)c1ccc2c(c1)nnn2CCNC(=O)Nc1ccc(Cl)cc1,,inactive: 3.31%
COc1ccc(C2CC(c3c(-c4ccccc4)c4cc(Cl)ccc4[nH]c3=O)=NN2S(C)(=O)=O)cc1 (centres undefined),"inconclusive: 20 µM [activator, single point]",
O=C(CN1CCN(c2ccc(Cl)cc2)CC1)c1ccc2c(c1)OCO2,"inconclusive: 39.8 µM [inhibitor, single point]",
O=C(COC(=O)CCC1CCCC1)Nc1ccc(Cl)cn1,,inactive: -8.56%
Cc1ccc(C)c(Cn2c(=O)n(-c3ccc(Cl)cc3)c(=O)c3c(C)c(C)sc32)c1,,inactive: -6.36%

Compound,Potency,"max response, negative = inhibition"
Cc1sc2nc(C3CC3)nc(SCC(=O)N3c4ccccc4CC3C)c2c1C (centres undefined),"inconclusive: 39.8 µM [inhibitor, single point]",
COc1ccc2c(c1)C=CC1(O2)N(CCO)c2ccccc2C1(C)C (centres undefined),"inconclusive: 31.6 µM [activator, partial curve]",
Cc1ccc(CN2CCSc3ccc(C(=O)Nc4ccc(C)cc4)cc32)cc1,active: 10 µM,
CCN(Cc1ccccc1)C(=O)Cn1c(=O)n(-c2ccc(Cl)cc2)c(=O)c2c(C)c(C)sc21,,inactive: 7.17%
COc1cc(/C(C)=N\NC(N)=S)cc(OC)c1OC,active: 1.26 µM,
COc1ccc(OC)c(/C=N/NC(=O)CCN2CCN(C(c3ccccc3)c3ccccc3)CC2)c1,,inactive: -4.69%
Cc1ccc(Cl)cc1N1CCN(C(=O)c2cc(S(=O)(=O)N3CCCC3)c[nH]2)CC1,"inconclusive: 39.8 µM [activator, single point]",
CCc1nnc(SCC(=O)N(CC)c2ccccc2)c2cc3oc(C)cc3n12,,inactive: -8.85%
CCN1CCc2nc(NC(=O)C(c3ccccc3)c3ccccc3)sc2C1,,inactive: -7.36%
Cc1ccc2c(=O)cc(C(=O)Nc3ccc(S(=O)(=O)N4CCCCCC4)cc3)oc2c1,,inactive: 5.09%
C/C(=C\C[Si](C)(C)C)CC[C@H](O)C1=CCCCC1=O,"inconclusive: 31.6 µM [inhibitor, single point]",
CCCC(=O)OCCNc1cc(SCc2ccco2)c2nonc2c1[N+](=O)[O-],,inactive: -29.9%
CCOC(=O)N1C2C=C(C)[C@@H]2[C@@H]2CC(=O)N21 (some centres undefined),active: 12.6 µM,
Cc1ccc(-n2nnnc2SCC(=O)c2cc(C)n(CC3CCCO3)c2C)cc1 (centres undefined),,inactive: 12.1%
O=C(Nc1ccccc1)c1ccc2c(c1)OCO2,,inactive: 1.37%
COc1cc(NS(=O)(=O)c2ccc(N)cc2)nc(OC)n1,"inconclusive: 6.31 µM [activator, single point]",
CC(C)c1ccc(NC(=O)CSC2=Nc3ccccc3C3=NC(CCC(=O)NCc4ccco4)C(=O)N23)cc1 (centres undefined),"inconclusive: 39.8 µM [activator, single point]",
CCOC(=O)CC(=O)CSc1nc2c(sc(=S)n2-c2ccc(OCC)cc2)c(=O)[nH]1,"inconclusive: 39.8 µM [activator, single point]",
COc1cc(/C=C/C(=O)Nc2nnc(C(C)(C)C)s2)cc(OC)c1OC,"inconclusive: 39.8 µM [activator, single point]",
Cc1cc(/C=N\NC(=O)COc2cccc3cccnc23)c(C)n1-c1ccc(Br)cc1,"inconclusive: 39.8 µM [inhibitor, single point]",
O=C(Nc1ccc2c(c1)CCC2)c1cc(S(=O)(=O)Nc2ccc(F)cc2)c(Cl)cc1Cl,active: 20 µM,
CCCn1nnc(NC(=O)COc2ccc(C3CCCCC3)cc2)n1,"inconclusive: 39.8 µM [activator, single point]",
COc1cc2ccc(=O)oc2cc1O,active: 15.8 µM and active: 31.6 µM,

Compound,Potency,"max response, negative = inhibition"
CCCN(CCC)c1nn2c(=O)c(C(=O)NCc3cc(Br)ccc3OC)cnc2s1,,inactive: 1.78%
COc1ccc(-c2nnn(CC(=O)c3ccc4c(c3)OCCO4)n2)cc1OC,"inconclusive: 39.8 µM [activator, single point]",
O=C(N/N=C/c1cn(-c2ccccc2)nc1-c1cc2ccccc2o1)c1ccncc1,,inactive: 24%
O=c1c(-c2ccc(F)cc2)nc2cnc(N3CCNCC3)nc2n1-c1ccccc1,"inconclusive: 20 µM [activator, single point]",
CC(C)n1c(SCC(=O)Nc2nc3c(s2)CCCC3)nc2c1c(=O)n(C)c(=O)n2C,"inconclusive: 39.8 µM [activator, single point]",
Cc1cc(OC(=O)CCNC(=O)OC(C)(C)C)c2c3c(c(=O)oc2c1)CCC3,"inconclusive: 39.8 µM [activator, single point]",
CC(C)(C)C(=O)OCc1cc(=O)n2nc(C3CC3)sc2n1,,inactive: -2.1%
COC(=O)c1sc(NC(=O)CSc2nc3cccnc3n2C2CCCCC2)nc1C,"inconclusive: 15.8 µM [activator, partial curve]",
CCOC(=O)C1(C)C=C(Nc2ccc(OC)cc2)C(=O)N1c1ccc(OC)cc1 (centres undefined),active: 15.8 µM,
CCN(CC)S(=O)(=O)c1ccc2c(c1)nc(CCC(=O)Nc1ccccc1Cc1ccccc1)n2CC,"inconclusive: 39.8 µM [activator, single point]",
O=C(Nc1cc(-c2ccccc2F)nn1-c1ccccc1)c1ccccc1Br,active: 31.6 µM,
C(=NC1CCCCC1)=NC1CCCCC1,,inactive: -3.98%
CCCCCOC(=O)CSc1nc2sc3c(c2c(=O)n1-c1ccccc1)CC(C)(CC)OC3 (centres undefined),,inactive: -6.62%
CCN(CC)c1ccc(/C=N/N=C(c2ccccc2)c2ccccc2)c(O)c1,active: 25.1 µM,
CC(=O)c1ccc(NC(=O)C2=CC(c3ccc(C)cc3)=NS(=O)(=O)N2C)cc1,"inconclusive: 25.1 µM [activator, single point]",
Oc1ccc2ccccc2c1/C=C\c1ccc2c(Br)cc(Br)c(O)c2n1,active: 3.16 µM,
CCOc1cc(C(=O)Nc2ccc3c(c2)OCO3)ccc1OCCOc1ccccc1Cl,"inconclusive: 39.8 µM [inhibitor, single point]",
Cn1c(=O)c2c(nc(N/N=C/c3ccc(OC(=O)c4ccco4)cc3)n2Cc2ccccc2Cl)n(C)c1=O,active: 31.6 µM,
CCOC(=O)c1c(-c2ccc(C)cc2)csc1NC(=O)c1cc(=O)c2cc(C)cc(C)c2o1,,inactive: 4.86%
Cn1c(=O)c2c(nc(N3CCCCCC3)n2CCSc2nc3ccccc3o2)n(C)c1=O,"inconclusive: 39.8 µM [activator, single point]",
Cc1cc(C)n(-c2nnc(SCC(=O)NC3CCCC3)c3ccccc23)n1,"inconclusive: 0.501 µM [activator, partial curve]",
CCN(CC)S(=O)(=O)c1ccc2c(c1)c(=O)c(C(=O)NCc1ccccc1Cl)cn2C,,inactive: -7.87%
N#C/C(=C/c1cn(-c2ccccc2)nc1-c1cccc(OCc2ccccc2)c1)C(=O)NCCCn1ccnc1,"inconclusive: 39.8 µM [inhibitor, single point]",

# Reference: PubChem BioAssay AID1476 (National Center for Advancing Translational Sciences (NCATS), 2009)
